The results in this text go back to article PMC8370620.

By UniProt entry, the sequences of proteins in these tests, tags left out. Where a name states a change or a piece, a line headed by the entry shows the natural chain unless it says otherwise. Chains listed by the source or under a name are the forms on record and can include a tag or linker. Residues count along the entry.
UniProt P68331: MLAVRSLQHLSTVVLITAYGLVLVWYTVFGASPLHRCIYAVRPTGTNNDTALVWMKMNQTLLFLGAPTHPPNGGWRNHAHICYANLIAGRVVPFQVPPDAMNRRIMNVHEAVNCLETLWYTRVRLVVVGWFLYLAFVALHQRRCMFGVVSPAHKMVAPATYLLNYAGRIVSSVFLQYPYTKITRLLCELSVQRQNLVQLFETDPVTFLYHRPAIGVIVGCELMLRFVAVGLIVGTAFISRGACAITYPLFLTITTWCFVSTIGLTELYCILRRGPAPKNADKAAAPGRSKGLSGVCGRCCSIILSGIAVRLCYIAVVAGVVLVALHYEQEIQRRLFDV
full-length HSV-1 glycoprotein K with in-frame Flag tag: residues 31-338 of P68331
Flag-gK1 (gK aa 1–115): residues 31-115 of P68331
Flag-gK2 (gK aa 116–230): residues 116-230 of P68331
Flag-gK3 (gK aa 231–338): residues 231-338 of P68331

These are yes or no findings as the source states them, for the method shown. Binding seen in cells or lysates may run through a third protein. Some entries that bind do so weakly or less than the wild type. Where a sequence is shown, tags or fusion partners need not be part of it.

The target of assay [1] is Flag-gK1.1 (gK aa 31–115, without the signal sequence) (HSV-1) (UniProt P68331). Nature of the assay: co-IP; lysate of cells co-transfected with HA-SPP and Flag-gK or Flag-gK1.1, 48 hr, IP with anti-Flag in the presence of 5 μg/ml of the indicated gK peptide, 4°C, blot anti-HA.
Assay [2] deals with full-length HSV-1 glycoprotein K with in-frame Flag tag (HSV-1) (UniProt P68331). The assay is described as above.
In assay [3] the target is Flag-gK1.1 (gK aa 31–115, without the signal sequence) (HSV-1) (UniProt P68331). Nature of the assay: co-IP; HeLa cells co-transfected with HA-SPP and Flag-tagged gK construct (1:1), 48 hr; lysate (25 mM Tris pH 7.2, 150 mM NaCl, 5% glycerol, 1 mM EDTA, 1% NP-40); IP with anti-Flag antibody at 4°C, western blot with anti-HA.
The target in assay [4] is Flag-gK1 (gK aa 1–115) (HSV-1) (UniProt P68331). The assay is described as above.
In assay [5] the target is Flag-gK3 (gK aa 231–338) (HSV-1) (UniProt P68331). The assay is described as above.
In assay [6] the target is Flag-gK2 (gK aa 116–230) (HSV-1) (UniProt P68331). The assay is described as above.

B1: signal peptide peptidase (SPP), full-length, with in-frame HA tag and ER retention signal (enzyme, UniProt Q8TCT9 1-377)
chain: MDSALSDPHNGSAEAGGPTNSTTRPPSTPEGIALAYGSLLLMALLPIFFGALRSVRCARGKNASDMPETITSRDAARFPIIASCTLLGLYLFFKIFSQEYINLLLSMYFFVLGILALSHTISPFMNKFFPASFPNRQYQLLFTQGSGENKEEIINYEFDTKDLVCLGLSSIVGVWYLLRKHWIANNLFGLAFSLNGVELLHLNNVSTGCILLGGLFIYDVFWVFGTNVMVTVAKSFEAPIKLVFPQDLLEKGLEANNFAMLGLGDVVIPGIFIALLLRFDISLKKNTHTYFYTSFAAYIFGLGLTIFIMHIFKHAQPALLYLVPACIGFPVLVALAKGEVTEMFSYEESNPKDPAAVTESKEGTEASASKGLEKKEK
For B1, the binding entry in assay [1] is on record as “binds”; in assay [2] it was “binds”; in assay [3] it was “binds”; in assay [4], “binds”; in assay [5], “no binding”; in assay [6], “no binding”.
